# Several values for one entry are separate records, joined by “and”; a condition that tells them apart may be missing. Equal values may be shown once. Where a name gives a salt, the structure may show the parent alone. Screen size: about 5,800 compounds; about 620 (11%) showed activity.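 Rule for the calls: active = score above a cut-off or among the top three wells of a plate; in these data no inactive exceeds 0.85.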 The list shows a part of the results, in another mix than the full data.
# System: primary human hepatic stellate cells (donor 1)
# Assay: scaled lipid accumulation score (0 = DMSO-like, 1 = nortriptyline-like); higher = stronger HSC inactivation (lipid re-accumulation), active = hit call of the paper
# Settings: 48 h
# Description: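 Primary lipid accumulation screen in primary human hepatic stellate cell myofibroblasts (donor 1, passage 8) in 384-well plates. 100 nL of library compound was pin-transferred into 30 µL medium in duplicate, and cells were treated for 48 h. The 'Scaled' score combines distance from plate baseline, toxicity and reproducibility penalties, and is normalised to nortriptyline (positive) and DMSO (negative) controls on each plate. A hit is defined as scaled >0.85 or among the top 3 wells per plate.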
# [1] = library stock concentration: 80 uM
# [2] = library stock concentration: 400 uM
# [3] = library stock concentration: 2 mM
# [4] = library stock concentration: 3.33 mM
# [5] = library stock concentration: 10 mM
# [6] = library stock concentration: 1 mM
smiles,measurement,setting,value
CC[N+](CC)(CC)CCC(O)(c1ccccc1)C1CCCCC1 (stereo not drawn) [Tridihexethyl chloride],scaled lipid accumulation score,,inactive: ≤ 0
C[C@@H]1CN(CC(=O)Nc2ccc3c(c2)Cc2cccc(-c4cc(=O)cc(N5CCOCC5)o4)c2S3)C[C@H](C)O1,scaled lipid accumulation score,[1],inactive: ≤ -0.006
same,scaled lipid accumulation score,[2],inactive: ≤ -0.009
same,scaled lipid accumulation score,[3],inactive: ≤ -0.009
same,scaled lipid accumulation score,[4],inactive: ≤ 0
same,scaled lipid accumulation score,[5],inactive: 0.001 and inactive: 0.074
O=C1CC2(CCCC2)CC(=O)N1CCNCC1COc2ccccc2O1 (stereo not drawn),scaled lipid accumulation score,[5],inactive: ≤ 0 and inactive: 0.017
NC[C@@H]1O[C@H](c2ccccc2)Cc2c1ccc(O)c2O,scaled lipid accumulation score,[5],inactive: ≤ 0
CO/N=C(\C(=O)N[C@@H]1C(=O)N2C(C(=O)O)=C(C[N+]3(C)CCCC3)CS[C@H]12)c1csc(N)n1 [Cefepime hydrochloride],scaled lipid accumulation score,,inactive: ≤ 0
CCOC(=O)[C@H](CCc1ccccc1)N[C@@H](C)C(=O)N1CCC[C@H]1C(=O)O [Enalapril],scaled lipid accumulation score,library stock concentration: 5.3 mM,inactive: ≤ 0
CCOC(=O)[C@H](CCc1ccccc1)N[C@@H](C)C(=O)N1CCC[C@H]1C(=O)O [Enalapril Maleate],scaled lipid accumulation score,[4],inactive: 0.026
same,scaled lipid accumulation score,[5],inactive: ≤ 0
CCOC(=O)[C@H](CCc1ccccc1)N[C@@H](C)C(=O)N1CCC[C@H]1C(=O)O,scaled lipid accumulation score,[5],inactive: ≤ 0
CCOC(=O)[C@H](CCc1ccccc1)N[C@@H](C)C(=O)N1CCC[C@H]1C(=O)O [Enalapril maleate],scaled lipid accumulation score,,inactive: ≤ 0
same,scaled lipid accumulation score,[5],inactive: ≤ 0
CCCCC[C@H](O)/C=C/[C@H]1[C@H](O)CC(=O)[C@@H]1C/C=C\CCCC(=O)NC(CO)CO [Prostaglandin E2 serinol amide],scaled lipid accumulation score,[6],inactive: ≤ 0
CS(=O)(=O)CCNCc1ccc(-c2ccc3ncnc(Nc4ccc(OCc5cccc(F)c5)c(Cl)c4)c3c2)o1.Cc1ccc(S(=O)(=O)O)cc1.Cc1ccc(S(=O)(=O)O)cc1,scaled lipid accumulation score,[4],active: 1.36
same,scaled lipid accumulation score,[5],active: 1.55
CNCCC(Oc1ccc(C(F)(F)F)cc1)c1ccccc1.Cl (stereo not drawn) [Fluoxetine HCl],scaled lipid accumulation score,[4],active: 0.709
same,scaled lipid accumulation score,[5],active: 1.02
CNC(=O)[C@H](Cc1ccccc1)NC(=O)[C@H](CC(C)C)[C@H](CSc1cccs1)C(=O)NO [Batimastat (BB-94)],scaled lipid accumulation score,[4],inactive: ≤ -0.009
same,scaled lipid accumulation score,[5],inactive: ≤ 0
CCCCC[C@H](O)C/C=C1/C(=O)C=C[C@@H]1C/C=C\CCCC(=O)O [D12-Prostaglandin J2],scaled lipid accumulation score,[6],inactive: ≤ -0.021
Cn1nnnc1SCC1=C(C(=O)O)N2C(=O)[C@@H](NC(=O)[C@H](OC=O)c3ccccc3)[C@H]2SC1 [Cefamandole nafate],scaled lipid accumulation score,[5],inactive: ≤ 0
C[C@]12CC[C@@H]3c4ccc(O)cc4CC[C@H]3[C@@H]1C[C@H](O)[C@@H]2O,scaled lipid accumulation score,[5],inactive: ≤ 0
NOCC(=O)O [O-(Carboxymethyl)hydroxylamine hemihydrochloride],scaled lipid accumulation score,[5],inactive: ≤ 0
Cl.Clc1ccc(CCCOCCCN2CCCCC2)cc1,scaled lipid accumulation score,[5],active: 1.05
CCCCC/C=C\C/C=C\C/C=C\C/C=C\CCCC(=O)OC(CO)CO [2-Arachidonoyl Glycerol],scaled lipid accumulation score,[6],inactive: ≤ 0
CCCCC/C=C\C/C=C\C/C=C\C/C=C\CCCC(=O)OC(CO)CO [2-Arachidonoylglycerol],scaled lipid accumulation score,[6],inactive: 0.011
Fc1cc(-c2ccnc(Nc3ccc(-n4cnc(N5CCOCC5)n4)cc3)n2)cc(N2CCOCC2)c1,scaled lipid accumulation score,[1],inactive: 0.394
same,scaled lipid accumulation score,[2],inactive: 0.734
same,scaled lipid accumulation score,[3],inactive: 0.178
same,scaled lipid accumulation score,[5],inactive: 0.442
CS(=O)(=O)c1cccc(CNc2nc(Nc3ccc4c(c3)CCC(=O)N4)ncc2C(F)(F)F)c1,scaled lipid accumulation score,[1],inactive: ≤ -0.016
same,scaled lipid accumulation score,[2],inactive: 0.003
same,scaled lipid accumulation score,[3],inactive: ≤ -0.016
same,scaled lipid accumulation score,[4],inactive: ≤ 0
same,scaled lipid accumulation score,[5],inactive: ≤ 0 and inactive: 0.58 and inactive: 0.381
CC1(C)CCC(CN2CCN(c3ccc(C(=O)NS(=O)(=O)c4ccc(NCC5CCOCC5)c([N+](=O)[O-])c4)c(Oc4cnc5[nH]ccc5c4)c3)CC2)=C(c2ccc(Cl)cc2)C1,scaled lipid accumulation score,[4],inactive: ≤ -0.009
same,scaled lipid accumulation score,[5],inactive: ≤ 0
CC(C)(C)n1nc(-c2ccc(Cl)cc2)c2c(N)ncnc21,scaled lipid accumulation score,[4],inactive: ≤ 0
same,scaled lipid accumulation score,[5],inactive: 0.101
CCCCCCCCCCC[C@@H](C[C@@H]1OC(=O)[C@H]1CCCCCC)OC(=O)[C@H](CC(C)C)NC=O,scaled lipid accumulation score,[5],inactive: 0.473
CCCCCCCCCCC[C@@H](C[C@@H]1OC(=O)[C@H]1CCCCCC)OC(=O)[C@H](CC(C)C)NC=O [Orlistat],scaled lipid accumulation score,[4],inactive: 0.229
same,scaled lipid accumulation score,library stock concentration: 4 mM,inactive: 0.263
same,scaled lipid accumulation score,[5],inactive: 0.296 and inactive: 0.642 and inactive: 0.506
S=C(Nc1ccccc1)Nc1nccs1 [1-Phenyl-3-(2-thiazolyl)-2-thiourea],scaled lipid accumulation score,[5],inactive: ≤ -0.055
COCCOc1cc2nc[nH]c(=O)c2cc1OCCOC,scaled lipid accumulation score,[5],inactive: 0.018
O=C1O[C@H](CO)[C@@H](O)[C@H](O)[C@H]1O [Gluconolactone],scaled lipid accumulation score,[5],inactive: ≤ -0.007
CCCCC[C@H](O)/C=C/[C@@H]1[C@@H](C/C=C\CCCC(=O)NCCO)[C@@H](O)C[C@H]1O [Prostaglandin F2.alpha. Ethanolamide],scaled lipid accumulation score,[6],inactive: ≤ 0
Cc1cc(Nc2ncnc3ccc(-c4ccc(CNCCS(C)(=O)=O)o4)cc23)ccc1Oc1ccn2ncnc2c1 [HER2-Inhibitor-1],scaled lipid accumulation score,[5],active: 0.977
CSc1ccc(C(=O)c2[nH]c(=O)[nH]c2C)cc1 [Enoximone],scaled lipid accumulation score,[5],inactive: 0.125
CCC(=O)OCC(=O)[C@@]1(OC(=O)CC)[C@H](C)CC2C3C([C@@H](O)C[C@@]21C)[C@@]1(C)C=CC(=O)C=C1C[C@H]3Cl (stereo partly drawn),scaled lipid accumulation score,[5],inactive: 0.055
O=C(O)C1CSCN1 (stereo not drawn),scaled lipid accumulation score,[5],inactive: ≤ 0
CC(C)(S)[C@@H](N)C(=O)O [Penicillamine],scaled lipid accumulation score,[5],inactive: ≤ 0
same,scaled lipid accumulation score,library stock concentration: 13.4 mM,inactive: 0.272
CO[C@H]1C[C@H](O[C@H]2[C@H](C)[C@@H](O[C@@H]3O[C@H](C)C[C@H](N(C)C)[C@H]3OC(C)=O)[C@@H](C)C[C@@]3(CO3)C(=O)[C@H](C)[C@@H](OC(C)=O)[C@@H](C)[C@@H](C)OC(=O)[C@@H]2C)O[C@@H](C)[C@@H]1OC(C)=O [Troleandomycin],scaled lipid accumulation score,,inactive: ≤ 0
same,scaled lipid accumulation score,[5],inactive: ≤ 0

# — the supplement of paper PMC9135407
